Hit rate of the full screen: of about 45,000 compounds, about 65 (0.1%) were called active. Calls come from the whole dose curve; as a rule, active = well fitted activation curve with a large enough effect; inconclusive = small, poorly fitted or top-dose-only effect; inactive = no such curve, though single readings can be large or run the other way. Some of the results follow.
What follows are compounds tested against Galactocerebrosidase (Homo sapiens) (UniProt P54803) (assay: A Novel Cell-Based Assay to Identify Small Molecules for B -Galactocerebrosidase). Conditions: 145M-Twi-hGALC-G270D cells (Twitcher mouse brain line with human GALC G270D), HMU-beta-Gal fluorescence, 48 h; series mostly up to 57.5 µM; activation: at the top concentration.
Chain of UniProt P54803 (P54803 whole entry, looked up): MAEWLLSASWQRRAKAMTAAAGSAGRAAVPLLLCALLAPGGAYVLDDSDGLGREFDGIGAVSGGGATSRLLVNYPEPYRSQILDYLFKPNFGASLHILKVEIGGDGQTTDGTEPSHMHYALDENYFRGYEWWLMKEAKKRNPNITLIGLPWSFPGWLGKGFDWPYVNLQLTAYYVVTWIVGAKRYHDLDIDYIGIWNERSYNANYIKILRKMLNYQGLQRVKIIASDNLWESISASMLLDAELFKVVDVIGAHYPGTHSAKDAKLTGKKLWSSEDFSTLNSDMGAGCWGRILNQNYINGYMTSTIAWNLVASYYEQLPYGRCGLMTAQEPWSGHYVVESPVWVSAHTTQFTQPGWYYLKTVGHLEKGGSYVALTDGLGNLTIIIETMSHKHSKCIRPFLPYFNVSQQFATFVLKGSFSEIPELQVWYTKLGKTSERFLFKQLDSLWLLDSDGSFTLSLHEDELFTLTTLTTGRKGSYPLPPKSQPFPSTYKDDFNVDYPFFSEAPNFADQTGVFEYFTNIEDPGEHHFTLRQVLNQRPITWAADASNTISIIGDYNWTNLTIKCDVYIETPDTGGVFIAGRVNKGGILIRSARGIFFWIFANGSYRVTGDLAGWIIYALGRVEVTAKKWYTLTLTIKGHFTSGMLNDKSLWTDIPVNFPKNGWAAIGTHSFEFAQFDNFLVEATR
Summary of the method: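 Live 145M-Twi cells (Twitcher mouse brain-derived, GALC-null) stably expressing human GALC-G270D, with a wild-type GALC line, were compound-treated. Residual GALC activity was then read as fluorescence from 0.1 mM final HMU-β-gal at pH 5.2; higher signal means activation.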
Note: 0% is about no effect; nearly all actives have a fitted effect of over 65% in size.

activation, inactive:
Cc1ccc(Nc2c(-c3ccc(N4CCOCC4)cc3)nc3cccc(C)n23)cc1 -43.7%, O=C1CC(c2nnc(Cc3c(F)cccc3Cl)o2)CN1c1ccccc1 (stereo not drawn) -2.32%, Cc1cccc(CN2C(=O)c3ccccc3S(=O)(=O)c3ccc(C(=O)N(C)Cc4ccccc4)cc32)c1 -4.74%, CCOC(=O)C(O)c1ccccc1 (stereo not drawn) -6.72%, CCOC(=O)c1ccc(NC2(c3ccccc3)C(=O)c3ccccc3C2=O)cc1 -11.7%, Cc1ccc(-c2nnc3ccccc3c2C(=O)Nc2ccc(C)c(F)c2)cc1 1.96%, COc1ccccc1C(=O)Nc1nnc(S(=O)(=O)N2CCN(c3ccc(F)cc3)CC2)s1 -1.1%, CCOC(=O)c1ccc(NC(=O)c2sc3ccccc3c2Cl)cc1 -8.14%, CCOc1ccccc1C(=O)Nc1ccc(-n2nncc2-c2ccccc2)cc1 -21.1%, COc1ccccc1NC(=O)CN(c1cc(C)cc(C)c1)S(=O)(=O)c1c(C)[nH]c(=O)[nH]c1=O -14.4%, CCc1nnc(SCc2nc(-c3cccc(Cl)c3)oc2C)c2cc3sc(C)cc3n12 -9.75%, COc1cc(OC)c(NS(=O)(=O)c2cc3c(cc2C)N(C(C)=O)CCO3)cc1Cl -10.8%, COc1ccc(Cl)cc1NC(=O)CCn1c(=O)c2cccn2c2ccccc21 -10.8%, CN(C)c1ccc(CNC(=O)C2CCCN(S(=O)(=O)c3ccc4c(c3)CCCC(=O)N4)C2)cc1 (stereo not drawn) 2.79%, Cc1ccc(C)c(Cn2c(=O)cc(C(F)(F)F)c3c(C)nn(C)c32)c1 -12.2%, Cc1ccccc1C(=O)NCc1nc(-c2ccc(Cl)cc2)no1 -3.22%, Cc1cccc(NC(=O)Cn2nnc(C(=O)NCc3cccs3)c2N)c1 -4.55%, NC(=O)c1c(NC(=O)c2cc(-c3ccc(F)cc3)on2)sc2c1CCCC2 -12.6%, CCC(C(=O)Nc1ccc(C(C)C)cc1)n1nc(C)n2c(cc3cc(C)ccc32)c1=O (stereo not drawn) -5.15%, CCCCNC(=O)CSc1nnc(C)c2c(C)n(-c3ccccc3)nc12 -14.9%, CC1CCN(S(=O)(=O)c2ccc3c(c2)CCC(=O)N3CC(=O)Nc2cccc(C#N)c2)CC1 -14.8%, Cc1ccc(Cn2c(C)c(CNCCCc3ccccc3)c(C(=O)O)c2C)cc1 -18.4%, O=C(NCc1ccccc1)c1ccc(CSc2nc3cccnc3n2Cc2ccccc2F)cc1 -6.84%, Cc1ccc(-c2cc3c(n2-c2ccc(C)cc2)CC(C)(C)CC3=O)cc1 -16.3%, CCC1CN(C(=O)N2CCC(C(=O)NCc3ccccc3C)CC2)c2ccccc2O1 (stereo not drawn) -1.06%, Cc1ccc(-c2noc(CNC(=O)c3ccccc3)n2)cc1 -15.4%, CC(C)NC(=O)C1CCN(c2nc3ccccc3nc2C(F)(F)F)CC1 -12.7%, Cc1ccc(C2=NN(CC(=O)NCCN(CC(C)C)CC(C)C)C(=O)CC2)cc1 -6.17%, COc1ccc(OCC(=O)Nc2cccc(-c3nc4ccccc4s3)c2C)cc1 -16.2%, O=C(NCCOCCn1c(=O)oc2ccccc21)Nc1ccc(F)cc1 -20.7%, Cc1ccc(NC(=O)C2CCN(S(=O)(=O)c3c(C)noc3/C=C/c3ccco3)CC2)cc1C -16.9%, CC(C)N(Cc1ccccc1)C(=O)CCS(=O)(=O)c1ccc2c(c1)oc(=O)n2C -11%, Cc1cc2c(cc1S(=O)(=O)N(CCN(C)C)Cc1ccco1)OCC(=O)N2 2.11%, Cc1ccc(S(=O)(=O)c2cn(C)c3cc(N4CCCC(C)C4)c(F)cc3c2=O)c(C)c1 (stereo not drawn) -15.3%, Cc1nc(N2CCCC2)ncc1C(=O)Nc1ccc(F)cc1F -2.54%, COc1ccccc1OCC(=O)Nc1nc(-c2ccc(Br)cc2)ns1 -1.02%, Cc1ccc(-n2ncc3c(N4CCC(Cc5ccccc5)CC4)ncnc32)cc1 -6.31%, CC(=O)O[C@@H]1CC2C3CCc4cc(OC(=O)c5ccccc5)ccc4C3CCC2(C)[C@H]1OC(C)=O (stereo partly drawn) -11.8%, Cc1c(Cl)cccc1NC(=O)Cn1cnc2nc3c(cc2c1=O)CCCC3 -27.2%, CC(C)(C)CC(=O)NC1CC(=O)N(c2ccc3c(c2)OCCO3)C1 (stereo not drawn) -12.7%, O=C(c1ccc2c(c1)N(Cc1ccccc1F)C(=O)c1ccccc1S2=O)N1CCOCC1 (stereo not drawn) -5.83%, Cc1ccc(CN2CCc3nc(N4CCN(C)CC4)ncc3C2)s1 -11.9%, COc1ccc2c(c1)c1c(c(=O)n(-c3ccccc3)c(=O)n1CC(=O)Nc1ccc(C)c(C)c1)n2C -11.1%, CN(Cc1ccccc1)S(=O)(=O)c1nnc(NC(=O)c2ccccc2)s1 -17.6%, Cc1cccc(N(C)C(=O)CSc2nc3ncccc3o2)c1 -19.1%, Cc1ccc2c(c1)cc1c(=O)n(CC(=O)N3CCCCC3)nc(C)n12 -20.9%, CCc1ccc(C(=O)c2cn(CC(=O)Nc3ccc(C)c(C)c3)c3ccccc3c2=O)cc1 12.7%, O=C(NCC1CCCO1)c1c[nH]c2ccc(S(=O)(=O)Nc3cccc(C(F)(F)F)c3)cc2c1=O (stereo not drawn) -12.5%, N#Cc1ccc(CSc2nc3c(c(=O)[nH]2)CCCC3)cc1 -8.01%, Cc1cccc(N(C)C(=O)CCNS(=O)(=O)c2ccc3c(c2)CCN3C(=O)C2CC2)c1 -44%, COc1cc(C(CC(=O)NCCC(C)C)N2Cc3ccccc3C2=O)cc(OC)c1OC (stereo not drawn) -19.1%, COc1cc(NC(=O)CN2CCN(CC(=O)Nc3ccc(F)cc3)CC2)cc(OC)c1 -1.42%, O=C(Nc1c(C(=O)Nc2ccccc2F)oc2ccccc12)c1cc2ccccc2o1 -9.02%, Cn1ncc2c(Nc3cccc(F)c3)ncnc21 2.99%, COC(=O)CCn1cnc2onc(-c3cc(F)cc(F)c3)c2c1=O -12.7%, Cc1ccc(C)c(CS(=O)(=O)c2cn(CC(=O)N(C(C)C)C(C)C)c3ccccc23)c1 -11.8%, CC(C)Sc1ncc(Cl)c(C(=O)Nc2ccc(S(=O)(=O)N(C)c3ccccc3)cc2)n1 -17.6%, Fc1ccc2ncc3c(-c4ccccc4)n[nH]c3c2c1 -10.9%, COc1ccc(C2CNC(=O)C2)cc1OC1CCCC1 (stereo not drawn) -26.9%, COc1ccc(/C=C/C(=O)Nc2sc3c(c2C(N)=O)CCC(C)C3)cc1OC (stereo not drawn) 3.36%, Cc1ccc2c(c1)N(C(=O)N1CCC(C(=O)NC3CCCCCC3)CC1)CC(C)O2 (stereo not drawn) -18.9%, COc1cc(NC(=O)Cc2c(C(=O)O)c(C)cn2C)cc(OC)c1 -10.5%, CNC(=O)c1c[nH]c2ccc(S(=O)(=O)Nc3cccc(Cl)c3C)cc2c1=O -0.578%

From PubChem BioAssay AID1159614 (National Center for Advancing Translational Sciences (NCATS), 2016)
